The campaign covered roughly 45,000 compounds. About 200 (0.44%) were called active. About 7% were inconclusive and are not listed. Calls come from the whole dose curve; as a rule, active = well fitted activation curve with a large enough effect; inconclusive = small, poorly fitted or top-dose-only effect; inactive = no such curve, though single readings can be large or run the other way. Some of the results follow.
Assay: qHTS of TDP-43 Inhibitors: NCGC Sytravon Library Screen; note: 0% is about no effect; nearly all actives have a fitted effect of over 55% in size
Details: yeast TDP-43 toxicity rescue, BacTiter-Glo growth, 24 h; series mostly up to 46.1 µM; growth rescue (activation): at the top concentration
Description: The goal of this project is to identify new chemical probes capable of reversing the toxicity associated with TDP-43 which is associated with frontotemporal lobar degeneration and amyotrophic lateral sclerosis. These compounds will provide a complementary approach to deciphering the tangled mechanisms of toxicity and protection that we have uncovered through genome-wide genetic screens and are beginning to uncover in a large-scale proteomics analysis with mass spectroscopy. To this end, a miniaturized assay was developed to be screened against the Molecular Libraries Small Molecule Repository (MLSMR) to discover TDP-43 inhibitors. Please note that in the set-up this yeast-based assay compounds that inhibit as TDP-43, have a read-out as activators. NIH Chemical Genomics Center [NCGC] NIH Molecular Libraries Probe Centers Network [MLPCN] Assay Submitter (PI): Susan Lindquist, Whitehead Institute/MIT MLPCN Grant: R21 NS060957
Dispense 2.5 microL yeast galactose medium per 1536-well plate, pin compound, dispense 2.5 microL TDP-43 expressing yeast in galactose medium at OD600=0.02 (pregrown in raffinose medium to mid-log phase) per well, incubate for 24 hr at 30 deg C, and cell growth will be measured using 5 microL of Bactiter/Glo reagent to entire plate and read using Luminescence Protocol in ViewLux.

SMILES	growth rescue (activation)
COc1cc(S(=O)(=O)N(Cc2cccnc2)Cc2cccc(OC)c2OC)ccc1-n1cnnn1	inactive: 38.5%
CN(Cc1ccccc1)C(=O)CN1C(=O)NC(C)(c2ccc(C(C)(C)C)cc2)C1=O (stereo not drawn)	inactive: 10.5%
CCOc1ccccc1CN(CCc1ccc2c(c1)OCO2)Cc1ccccn1	inactive: -8.44%
O=C(O)c1ccc(N=Nc2c(-c3ccccc3)[nH]oc2=O)cc1	inactive: 10.2%
CCn1c(C)cc(/C=C2/SC(=O)N(C(C)C(=O)OC)C2=O)c1C (stereo not drawn)	inactive: 15%
CC(C)c1ccc(NC(=O)Nc2nc(C(N)c3ccccc3)cs2)cc1 (stereo not drawn)	inactive: 17.7%
COCCNC(=O)C1(C)CCCN(Cc2ccc3ccccc3c2Br)C1 (stereo not drawn)	inactive: -3.33%
CCCCn1c(O)c(C=NCCCN(C)C)c(=O)[nH]c1=O	inactive: -25.2%
O=C(CSc1nc2ccc(Cl)cc2[nH]1)NC1CCCc2ccccc21 (stereo not drawn)	inactive: -16.8%
Cc1cc(C)nc(N2CCC(C(=O)NC3CC3)CC2)n1	inactive: 4.32%
COc1cccc(C2(O)C(=O)Nc3ccccc32)c1 (stereo not drawn)	inactive: -7.8%
CC(C)c1nnc(NC(=O)CCCC(=O)O)s1	inactive: 11.1%
COC(=O)c1sccc1NC(=S)N1CCCCC1	inactive: 18.8%
Cc1ccc(CNc2ncc(-c3ccccc3)n2C)o1	inactive: -2.49%
Cc1ccc(NC(=O)COC(=O)c2ccccc2Nc2ccccc2)cc1	inactive: 23.5%
CCOC(=O)C1=c2s/c(=C\c3ccncc3)c(=O)n2C(N)=C(C(=O)OC)C1c1ccncc1 (stereo not drawn)	inactive: -0.106%
O=C(O)Cc1ccc(NS(=O)(=O)c2c(Cl)cccc2Cl)cc1	inactive: 16.5%
CCCSc1ncnc2sc(C)c(C)c12	inactive: -0.572%
COCCOC(=O)C1=C(C)OC(N)=C(C#N)C1c1ccc2c(c1)OCO2 (stereo not drawn)	inactive: -17.3%
O=C(CSc1cccc[n+]1[O-])Nc1ccc(Br)cc1Br	inactive: 1.08%
COc1ccc(N(CCC#N)S(=O)(=O)c2cccc3nsnc23)cc1	inactive: -3.63%
COc1ccc(C(=O)NCc2ccc(C(=O)O)o2)cc1	inactive: -4.2%

SMILES	growth rescue (activation)
CCCCc1ccc(-n2nnnc2SCC(=O)Nc2cc(OC)c([N+](=O)[O-])cc2C)cc1	inactive: 8.18%
CCOc1ccc(CCNS(=O)(=O)c2c(C)nc3scc(C)n3c2=O)cc1OCC	inactive: -11.7%
Cc1nc2cc(C(=O)OCC(=O)Nc3ccc(C#N)cc3)ccc2n1-c1ccccc1	inactive: 7.12%
COc1cc(C(=O)NC2CCCc3ccccc32)cc(OC)c1C (stereo not drawn)	inactive: 4.82%
CC(c1ccccc1)N1CCN(C(=O)CCl)CC1 (stereo not drawn)	inactive: 6.59%
Cc1cccc(OC(C)C(=O)OCC(=O)N2CCN(c3ccccc3)CC2)c1 (stereo not drawn)	inactive: 9.99%
O=C(CSc1nnc(Cc2ccccc2)n1-c1cccc(Cl)c1)NNC(=O)Cc1ccccc1	inactive: 11.6%
COc1cccc(NC(=O)C(Sc2nnc(Nc3ccccc3C)s2)c2ccccc2)c1 (stereo not drawn)	inactive: 7.55%
COc1ccccc1NS(=O)(=O)c1ccc(Cl)c(NC(=O)CN2C(=O)c3ccccc3C2=O)c1	inactive: -0.983%
CCOc1cc(C2C3=C(CCCC3=O)OC3=C2C(=O)CCC3)cc([N+](=O)[O-])c1O	inactive: 1.32%
Cc1ccc(S(=O)(=O)Nc2cc(C)cn(Cc3ccccc3)c2=O)cc1	inactive: 0.371%
Cc1ccc(S(=O)(=O)Nc2cc(C(F)(F)F)ccc2N2CCOCC2)cc1	inactive: 1.61%
COc1ccc(-n2ncc3c2ncn2nc(COc4ccc(Cl)cc4)nc32)cc1	inactive: 14.7%
O=C1N=c2ccc([N+](=O)[O-])cc2=C1c1sc(=O)[nH]c1O	inactive: 10.6%
O=C(NCCCN1CCOCC1)c1ccc2c(=O)n(Cc3cccc(Br)c3)c(=S)[nH]c2c1	inactive: 18.2%
COc1ccccc1CNc1ncnc2sccc12	inactive: 40.4%
CCn1c(CNC(=O)c2ccco2)nnc1SCC(=O)Nc1cc(F)ccc1C	inactive: 4.33%
Cc1c(C(=O)NCc2ccccc2)oc2c1C(=O)CCC2	inactive: -20.7%
CCCCNC(=O)/C=C/c1ccc(S(=O)(=O)Nc2ccc(OC)cc2)cc1	inactive: 10.9%
COc1ccc(N2CCN(C(=O)CN3C(=O)NC4(CCCCC4C)C3=O)CC2)cc1 (stereo not drawn)	inactive: -13.4%
O=C(NCc1cccnc1)c1cc(C2CCCN(C(=O)c3cccs3)C2)on1 (stereo not drawn)	inactive: -18.2%
CSc1ccccc1NC(=O)N1CCC(CO)(CC2CCCCO2)CC1 (stereo not drawn)	inactive: 8.73%

SMILES	growth rescue (activation)
COCCN(C(=S)Nc1c(C)cccc1C)C(C)c1cccnc1 (stereo not drawn)	inactive: 8.8%
COc1ccc(CN2CCC2(C)C(=O)NCc2ccc3c(c2)OCO3)c2ccccc12 (stereo not drawn)	inactive: 4.54%
O=C(c1ccccc1)N1CCN(C(=O)c2cc3nc(-c4ccccc4)cc(C(F)(F)F)n3n2)CC1	inactive: 15%
CCCn1c(SCC(=O)Nc2ccc(NC(C)=O)cc2)nc2c1c(=O)n(C)c(=O)n2C	inactive: 7.39%
O=C(NCc1ccco1)c1cc(-c2cccs2)nc2ccccc12	inactive: 3.84%
CCn1c(SCC(=O)N2CCC(C(N)=O)(N3CCCCC3)CC2)nnc1-c1ccccc1	inactive: 7.26%
CCc1ccc2[nH]c(=O)c(CN(CCN(C)C)C(=S)NCc3ccco3)cc2c1	inactive: 0.873%
COc1ccc(S(=O)(=O)NCc2ccccn2)c(C)c1C	inactive: 3.52%
C=CCNC(=S)Nc1ccc(N(C)C)cc1	inactive: -1.39%
O=CN1CCN(S(=O)(=O)c2ccc(S(=O)(=O)NC3CCCCC3)cc2)CC1	inactive: 0.129%
CCOC(=O)c1cc2c(ccn2C)n1Cc1ccccc1Cl	inactive: 14.3%
CCC1(C)CC(c2nc(-c3ccc(OC)cc3)cs2)CCS1 (stereo not drawn)	inactive: 2.79%
COc1ccccc1C(=O)NCc1nnc(SCC(=O)Nc2nccs2)n1C	inactive: -8.1%
CC(=O)Nc1nc(C)cs1	inactive: 0.911%
O=C(CSC1=NC(=O)C(c2ccccc2)C(=O)N1)Nc1ccccc1[N+](=O)[O-] (stereo not drawn)	inactive: 2.14%
COC(=O)COc1ccc2oc(-c3ccc(OC)cc3)cc(=O)c2c1	inactive: 12.6%
CCCCN(C=O)c1c(CC)nc2c(OCc3ccc(S(C)(=O)=O)cc3)cccn12	inactive: -18.7%
COC(=O)c1ccc(NC(=O)C(=O)N2CCN(C(=S)Nc3ccc(C)cc3)CC2)cc1	inactive: 26.8%
CC(C)(C)NS(=O)(=O)c1ccc(NC(=O)C2CCCCC2)cc1	inactive: 7.94%
COc1ccc(Nc2nnc(-c3ccccc3)c3ccccc23)cc1C(=O)N1CCCCC1	inactive: 6.16%
O=C(CCC1CCCN(C(=O)c2ccc3cc[nH]c3c2)C1)N1CCN(c2ccccn2)CC1 (stereo not drawn)	inactive: 0.443%
Cc1ccc(-n2c(C)cc(/C=c3/sc4nc5ccccc5n4c3=O)c2C)cc1	inactive: 11.8%

SMILES	growth rescue (activation)
CCc1ccc(-c2nc(CS(=O)CC(=O)NCc3cccnc3)c(C)o2)cc1 (stereo not drawn)	inactive: -0.192%
CC(C)CCOCC(=O)Oc1ccccc1C(=O)O	inactive: -9.84%
N#CCC(=O)Nc1ccc(C(=O)N2CCN(c3ccccn3)CC2)cc1	inactive: 7.37%
COc1ccccc1NC(=O)CNC(=O)Cn1c(C)cc2ccccc2c1=O	inactive: -6.93%
CCCC(=O)n1nc(NCc2ccc(OC)cc2)nc1NCc1ccc(OC)cc1	inactive: 11%
O=C(c1ccc(N2CCCS2(=O)=O)cc1)N1CCN(c2ccc(F)cc2)CC1	inactive: 11.1%
CCCCC(=O)NC(NC(=S)N1CCCCCC1)C(Cl)(Cl)Cl (stereo not drawn)	inactive: 3.75%
COc1cc(/C=C2\SC(=Nc3ccccc3)NC2=O)cc(Cl)c1O	inactive: 13.3%
Cc1ccc(NC(=O)c2ccccc2NC(=O)c2cccs2)cc1	inactive: 7.49%
CCCc1nnc(NC(=O)CSc2nnc(-c3ccco3)n2C)s1	inactive: -7.43%
CNC(=S)Nc1cc(OC)c(NC(=O)c2ccco2)cc1OC	inactive: 13.5%
CC(NCC(O)COc1ccc2ccccc2c1)c1ccccc1 (stereo not drawn)	inactive: -6.57%
COC(=O)c1ccc(NC(=O)CN(CCc2ccccc2)S(=O)(=O)c2ccc(OC)cc2)cc1	inactive: -0.444%
COc1cc(OC)cc(C(=O)NCC(=O)OC(C)C(=O)NC(C)C2CC3CCC2C3)c1 (stereo not drawn)	inactive: 9.15%
CNC(=O)COc1ccc(S(=O)(=O)Nc2ccccc2)cc1	inactive: -4.96%
O=C(NCc1ccco1)/C(=C/c1ccccc1)NC(=O)c1ccco1	inactive: -1.85%
CCn1c(C(=O)NCc2ccc(OC(C)C)cc2)cc2oc3ccccc3c21	inactive: 23.3%
CC1(C(=O)NS(=O)(=O)c2ccc(Cl)cc2)CCN1C(=O)Cc1cccs1 (stereo not drawn)	inactive: 5.27%
Cc1ccc(S(=O)(=O)Nc2ccc(N3CCOCC3)cc2)cc1C	inactive: -5.87%
Cc1ccc(C2=N/C(=C\c3cccnc3)C(=O)O2)cc1	inactive: -5.02%
COc1ccccc1NS(=O)(=O)c1ccc(N/N=C(\C)C(C)C)c([N+](=O)[O-])c1	inactive: 13.5%
COC(=O)COc1ccc(C)cc1-n1nc2ccccc2n1	inactive: 10.2%

SMILES	growth rescue (activation)
CCC1=NN(C(=O)COc2ccccc2)C(O)(c2ccc(Br)cc2)C1 (stereo not drawn)	inactive: 26.2%
COC(=O)c1cccc(NC(N)=S)c1	inactive: -18.3%
CCC(CCC(=O)Nc1cccc(C(=O)O)c1)C(=O)O (stereo not drawn)	inactive: -13.5%
O=C(NCC1CCCO1)/C(=C/c1cn(-c2ccccc2)nc1-c1cccnc1)NC(=O)c1ccccc1 (stereo not drawn)	inactive: 6.65%
CCOc1ccc(/C(O)=C2/C(=O)C(=O)N(CCN(CC)CC)C2c2ccco2)cc1 (stereo not drawn)	inactive: 12.7%
Cc1cc(C(=O)NN)n[nH]1	inactive: 6.25%
COc1ccc(Nc2nc(C)nc3c2oc2ccccc23)c(OC)c1	inactive: 5.83%
O=C(c1cc(-c2cccc(Cl)c2)on1)N1CCN(c2ccccc2)CC1	inactive: -7.89%
Cc1ccc(OCC(=O)Nc2ccc3c(c2)ncn3C)cc1	inactive: -5.44%
CCOc1ccccc1NC(=O)N(Cc1ccc(F)cc1)C1CCN(CC)CC1	inactive: 16.9%
CC1CCCN(c2cc3c(cc2[N+](=O)[O-])C(=O)N(c2ccccc2)C3=O)C1 (stereo not drawn)	inactive: -0.131%
CCNc1nc(NC(C)(C)C)nc(SCC(N)=O)n1	inactive: 7.22%
COc1ccc(S(=O)(=O)N2CCC(n3cnc4ccccc43)CC2)cc1	inactive: -12.6%
Cc1nc2ccccn2c1C(=O)NN	inactive: 3.15%
Cc1cccc(Nc2ncnc(N)c2[N+](=O)[O-])n1	inactive: 11%
O=C(Nc1cccc2nsnc12)c1ccc(-c2cccc(Cl)c2)o1	inactive: 11.5%
CN(C)CCCNS(=O)(=O)c1ccc(NC2CCCCCC2)c([N+](=O)[O-])c1	inactive: 3.92%
CCC1CC2(C)NC(=O)c3c(sc4c3CC(C)(C)OC4)N2C1=O (stereo not drawn)	inactive: 7.13%
O=C(Nc1ccccc1C(=O)Nc1ccncc1)c1ccc([N+](=O)[O-])cc1	inactive: 15.7%
CC(=O)Nc1ccc(CN2CCCC(C(=O)c3ccc(C(F)(F)F)cc3)C2)cc1 (stereo not drawn)	inactive: 8.1%

Source: PubChem BioAssay AID1347073 (National Center for Advancing Translational Sciences (NCATS), 2019)
